# Reference: publication PMC6919601, “Identification of Plasmodium dipeptidyl aminopeptidase allosteric inhibitors by high throughput screening” (PLoS ONE, 2019)
# Several values for one entry are separate records, joined by “and”; a condition that tells them apart may be missing. Equal entries are not always repeated. The campaign covered roughly 110,000 compounds. About 230 (0.21%) showed an effect of 50% or more. The list shows a part of the results.
# Target: DPAP1 (Plasmodium falciparum, UniProt Q8IIJ9)
# Experiment: primary screen, percent inhibition; read by cleavage of a fluorogenic dipeptide substrate; higher = more effect of the substance
# Set-up: species or system P. falciparum D10 trophozoite lysates; single well
# 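Also: 30 min substrate incubation versus DMSO and 10 µM JCP410 controls.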
# Sequence of DPAP1 (Q8IIJ9 whole entry, looked up): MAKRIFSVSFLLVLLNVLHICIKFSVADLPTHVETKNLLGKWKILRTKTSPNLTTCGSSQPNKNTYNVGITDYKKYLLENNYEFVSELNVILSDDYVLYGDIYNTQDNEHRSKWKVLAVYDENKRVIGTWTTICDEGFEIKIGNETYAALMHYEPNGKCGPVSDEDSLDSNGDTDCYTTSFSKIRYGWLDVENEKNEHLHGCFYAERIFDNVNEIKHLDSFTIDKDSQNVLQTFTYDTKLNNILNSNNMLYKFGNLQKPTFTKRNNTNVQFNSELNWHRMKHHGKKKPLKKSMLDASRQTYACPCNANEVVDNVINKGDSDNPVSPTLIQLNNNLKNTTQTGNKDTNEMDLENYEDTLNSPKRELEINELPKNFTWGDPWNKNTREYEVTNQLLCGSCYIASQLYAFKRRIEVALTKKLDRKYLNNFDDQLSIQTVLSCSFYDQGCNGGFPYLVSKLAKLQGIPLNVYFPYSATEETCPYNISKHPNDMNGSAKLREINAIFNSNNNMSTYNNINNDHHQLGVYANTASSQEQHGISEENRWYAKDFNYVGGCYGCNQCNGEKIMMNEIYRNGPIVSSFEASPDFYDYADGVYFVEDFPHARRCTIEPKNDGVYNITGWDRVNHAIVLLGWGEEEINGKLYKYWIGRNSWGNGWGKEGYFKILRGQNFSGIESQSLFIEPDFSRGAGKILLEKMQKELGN
row,Compound,% Inhibition @ 10 uM
1,CN(C)C(=N)c1[nH]nnc1SCc1ccccc1,-5.14%
2,Cc1cc(NC(=O)CSc2ccccc2)ccc1Cl,4.08%
3,COCCNC(=O)c1ccc2c(c1)ncn2C1CCCC1,2.05%
4,CN1CCN(C(=O)c2cnn3c(C(F)(F)F)cc(-c4cccs4)nc23)CC1,-1.2%
5,CC(C)Oc1ccc(NC(=O)COc2cccc(Cl)c2)cc1,-1.63%
6,CCCOc1ccc(-c2nonc2NC(=O)c2ccc(F)cc2)cc1OCCC,-5.08%
7,CCOc1ccc(CCNS(=O)(=O)c2ccc3ncc(C(=O)O)c(O)c3c2)cc1OCC,-0.601%
8,CCc1ccccc1NS(=O)(=O)Cc1ccccc1,-0.8%
9,Cc1ccccc1NC(=O)c1c(NC(=O)c2cccnc2)sc2c1CCC2,5.53%
10,COc1ccc(C)cc1NC(=O)CCc1ccccc1,-0.636%
11,N=C1S/C(=C\c2cn[nH]c2-c2ccc(F)cc2)C(=O)N1c1nccs1,8.38%
12,Oc1ccccc1-c1nnc2n1N=C(c1ccc(Br)s1)CS2,7.41%
13,CC(C)N(CC#Cc1ccc(C#CCN(C(C)C)C(C)C)cc1)C(C)C,0.962%
14,CN(C)CCN(C(=O)COc1ccccc1)c1nc2c(F)cccc2s1,0.174%
15,CCn1c(C(=O)O)c(CNCc2ccccc2)c2ccc(C)cc21,-0.397%
16,Cc1c(C(=O)N2CCCC2)oc2c1-c1nn(CC(=O)NCc3ccc4c(c3)OCO4)cc1CC2,9.84%
17,N#CC1=C(N)n2c(s/c(=C\c3ccccc3F)c2=O)=C(C(N)=O)C1c1ccccc1F (centres unmarked),7.76%
18,Cc1c(C(C)c2c(C)n(C)n(-c3ccccc3)c2=O)c(=O)n(-c2ccccc2)n1C,-4.58%
19,CC1=C(C(=O)OCc2ccccc2)C(c2ccc(F)c(Br)c2)CC(=O)N1 (centres unmarked),4.55%
20,COc1ccc(C2C=C(c3ccc(Cl)cc3OC(F)F)Nc3ncnn32)cc1 (centres unmarked),-5.05%
21,Cn1c(=O)c2c(-c3ccccc3)n(-n3cnnc3)cc2n(C)c1=O,2.32%
22,O=C(c1cccc(F)c1)N1CCN(c2nc(-c3ccc(F)cc3)cc(C(F)(F)F)n2)CC1,5.5%
23,CN(C)S(=O)(=O)c1ccc2c(c1)oc(=O)c1cc(S(=O)(=O)N(C)C)ccc12,-5%
24,CC(C)(CNC(=O)c1ccccc1)CNC1=NS(=O)(=O)c2ccccc21,7.44%
25,Cc1cc(OCC(N)=O)ccc1Cl,-3.94%

row,Compound,% Inhibition @ 10 uM
1,CCC(C(=O)NCc1ccc(C)cc1)n1ccc2cc(S(=O)(=O)N3CCCCC3)ccc21 (centres unmarked),3.33%
2,Cc1cc(-c2noc(-c3cc4ccccc4oc3=O)n2)c2ccccc2n1,-2.91%
3,N#CCNC(=O)[C@@H](CO)NC(=O)OCc1ccccc1,-6.56%
4,CCOC(=O)N1CCN(C(=O)Cn2cnc3c(nnn3-c3ccc(F)cc3)c2=O)CC1,-3.94%
5,NS(=O)(=O)c1ccc(CCNC(=O)c2nc(SCc3ccc(F)cc3)ncc2Cl)cc1,4%
6,COc1cccc(-c2nc(SCC(=O)NCc3ccco3)c(-c3ccccc3)[nH]2)c1,-1.58%
7,CCN(CC)CCCCOc1ccc(C)c(C)c1,4.54%
8,C1CCCC(NCCN2CCCCC2)CCC1,3.68%
9,Nc1ccc2nn(-c3ccc([N+](=O)[O-])cc3)nc2c1,-0.636%
10,CC(C)C1Oc2ccc(Cl)cc2C2CC(c3ccccc3O)=NN21 (centres unmarked),0.0719%
11,CC(=O)c1cccc(NS(=O)(=O)c2cc(C)ccc2C)c1,-2.6%
12,Cc1ccc(NC(=O)C2CCCC2)c(NC(=O)C2CCCC2)c1,1.39%
13,CCCCOc1ccc(-c2nc(/C=N/c3nccs3)c(O)o2)cc1,-1.65%
14,CC(=O)Nc1ccc(S(=O)(=O)Nc2cccc(C(F)(F)F)c2)cc1,-1.42%
15,Cc1cc(N2C(N)=C(C#N)C(c3cc(Cn4cncn4)cs3)C3=C2CCCC3=O)no1 (centres unmarked),1.76%
16,CCc1c(C)nc2ccc(OC)cc2c1S,-3.77%
17,CCCCNC(=O)CN(c1ccc(F)cc1)S(=O)(=O)c1ccc2c(c1)OCCO2,0.795%
18,Cc1ccc(NC(=O)C2c3ccccc3C(=O)N3CCc4ccccc4C23)nc1 (centres unmarked),1.08%
19,CN1C(C(=O)NCC23CC4CC(CC(C4)C2)C3)=CC(c2ccc(F)cc2)=NS1(=O)=O,-4.68%
20,O=c1oc(-c2ccco2)nc2sc3c(c12)CCC3,1.88%
21,CCN(CC)S(=O)(=O)c1cccc(C(=O)Nc2cccnc2)c1,4.41%
22,CCC(=O)Nc1cc2c(cc1C(=O)CC)OCCO2,2.38%
23,COc1ccc(CNC(=O)C2CCCN(C(=O)N(C)C)C2)c(OC)c1 (centres unmarked),3.66%
24,Cc1ccc(CNC(=O)Cn2nc(-n3cccc3)c3c(C)cc(C)nc32)cc1,1.12%
25,COc1ccccc1-c1c(C)nn2c(NCC3CCCO3)cc(C)nc12 (centres unmarked),-3.21%

row,Compound,% Inhibition @ 10 uM
1,O=C(c1ccccc1)C1CN(Cc2ccccc2)CCC1(O)c1ccccc1 (centres unmarked),3.16%
2,COc1ccc(C2CC(c3ccc(Cl)cc3)=NN2c2cccc(Br)c2)c(OC)c1 (centres unmarked),0.968%
3,COc1ccc(C2=N/C(=C\c3ccccc3F)C(=O)O2)cc1OC,2.92%
4,O=S(=O)(c1ccc(Cl)cc1)c1nnn2c1nc(N1CCCCC1)c1ccccc12,1.89%
5,CN1CCN(C(=O)C2CCN(C(=O)c3cc4sccc4n3C)CC2)CC1,-1.58%
6,CCOC(=O)C1=C(C)N(CCOC)C(=O)/C1=C\c1cc(OC)c(OC)c(OC)c1,16%
7,CCC(C)NCc1c(C(=O)O)n(Cc2ccc(C)cc2)c2cc(OC)ccc12 (centres unmarked),-7.24%
8,CC(C)(C)NC(=O)CCc1nc(-c2ccc(C(C)(C)C)cc2)no1,2.02%
9,COC(=O)C(O)(c1ccc(N)cc1)C(F)(F)F (centres unmarked),0.937%
10,Cc1ccc(C(CC(=O)N2CCC(C)CC2)N2Cc3ccccc3C2=O)cc1 (centres unmarked),4.6%
11,COc1ccc2c(c1)CC/C(=C\c1ccccc1C)C2=O,-2.12%
12,O=C(Cn1nnc2sc3c(c2c1=O)CCCC3)c1ccccc1,-0.946%
13,CCOc1ccccc1-c1cc(NC(=O)Cn2ncc3c2-c2cc(C)ccc2OC3)on1,2.53%
14,CCNC(=O)/C(=C\c1ccc(Br)cc1)NC(=O)c1ccccc1,3.96%
15,CC(C)C[C@H](NC(=O)c1cc(-c2ccco2)c(-c2ccco2)s1)C(=O)NCC#N,3.19%
16,Cc1cc(C)c(S(=O)(=O)N2CCOCC2)c(C)c1,1.63%
17,Cc1ccc(C2CCN(C(=S)NC(C)C)C2)cc1 (centres unmarked),-4.53%
18,CC(C)c1[nH]nc2c1C(c1ccc(F)c(Br)c1)C(C#N)=C(N)O2 (centres unmarked),-1.37%
19,O=c1c2c(n3nnnc3n1-c1ccccc1)-c1ccccc1CC21CCCCC1,1.27%
20,CCN(CC)CC#CC(O)(c1ccccc1)c1ccccc1,-2.7% and 3.25%
21,COc1cc(CCNC(=O)CCCn2c(=O)c3cccn3c3cccnc32)cc(OC)c1OC,3.24%
22,Cc1cc(=O)oc2c(C)c(OCC(N)=O)ccc12,-0.958%
23,Cc1ccc(-c2cn3c(n2)sc2cc(C(=O)NCCCN4CCCC4=O)ccc23)cc1,5.37%
24,O=C1N/C(=C/c2ccc(F)cc2)C(=O)N1c1cccc(Cl)c1,-5.05%
25,O=C(c1ccc(CS(=O)(=O)c2ccc(Br)cc2)o1)N1CCOCC1,-3.32%

row,Compound,% Inhibition @ 10 uM
1,CN(Cc1ccccc1)C(=O)CCn1c(=O)c2cccn2c2cccnc21,-5.37%
2,O=C(Cc1nc[nH]n1)NCCc1ccccc1,1.03%
3,C=CC/N=C1\SC(CC(=O)Nc2ccccc2C)C(=O)N1S(=O)(=O)c1ccc(C)cc1 (centres unmarked),-4.63%
4,Cc1cccc(-c2[nH]c3c(C#N)cnn3c2NCCC(C)C)c1,3.84%
5,O=C(c1cccnc1)N1CCN(Cc2ccc(Cl)cc2)CC1,-0.968%
6,CNS(=O)(=O)c1ccc(NC(=O)c2cnn3c(C(F)F)cc(-c4ccc(C)cc4)nc23)cc1,-5.71%
7,O=C(NC1CCS(=O)(=O)C1)c1ccco1 (centres unmarked),-1.56%
8,COc1ccc(N2CCN(Cc3ccc(OC)c(OC)c3)CC2)cc1,6.08%
9,CCC(C)c1ccc(NC(=O)c2c(Cl)cnn2CC)cc1 (centres unmarked),-4.76%
10,COCCNC(=O)C1CCCN(S(=O)(=O)N2CCC(C)CC2)C1 (centres unmarked),-0.546%
11,COc1ccc(OC)c(NC(=O)COc2ccc(C(C)C)cc2)c1,0.52%
12,CCC(CC)N1CCN(c2ccc3nc(C(=O)NCc4cccc(Cl)c4)ccc3n2)CC1,-8.51%
13,COc1cc(CNCCO)cc(Br)c1OCc1ccccc1Cl,-6.43%
14,CC1=CC2=NC(=O)/C(=C\c3cc(C)n(-c4cccc(C(F)(F)F)c4)c3C)C(=N)N2O1,-5.34%
15,CCN1CCN(Cc2c(NC(=O)c3ccccc3)sc(C)c2C)CC1,2.64%
16,Cc1ccc(-c2cn3c(n2)sc2cc(C(=O)NCc4cccnc4)ccc23)c(C)c1,1.64%
17,Cc1ccc2c(CNCC3CCCO3)c(C(=O)O)n(Cc3ccccc3F)c2c1 (centres unmarked),1.76%
18,COc1ccc(OC)c(NC(=O)c2c(OC)cccc2OC)c1,-3.44%
19,O=C(NC1CCCc2ccccc21)C(NS(=O)(=O)c1cccc2nsnc12)c1ccccc1 (centres unmarked),3.63%
20,Cc1ccc(N2CCCn3c2nc2c3c(=O)[nH]c(=O)n2C)cc1,3.67%
21,COc1ccccc1NC(=O)C1=C(C)N=C2CC(C)(C)CC(O)=C2C1c1ccc2c(c1)OCO2 (centres unmarked),-0.25%
22,N#Cc1ccc(Oc2ccc(OCc3ccccc3)cc2)cc1C#N,-6.83%
23,CC1=C(c2ccc(C)c(C)c2)S(=O)(=O)N=C1NCCCc1ccccc1,2.27%
